# Source: article PMC5836133
# This is one part of the list. At the low end of the ranking, values are background and their order means little.
# System: T1, GST-NbGlk1(82-244)
# T1 sequence: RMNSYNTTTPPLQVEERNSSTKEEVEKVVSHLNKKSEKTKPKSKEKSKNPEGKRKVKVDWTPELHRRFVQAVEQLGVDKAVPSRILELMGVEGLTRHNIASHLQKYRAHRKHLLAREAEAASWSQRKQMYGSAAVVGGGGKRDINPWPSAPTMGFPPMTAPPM
# Test: protein-binding microarray;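 note: rank-based score ranging −0.5 to +0.5 with E above 0.45 taken as significant binding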
# Settings: NbGlk1 is a Golden2-like transcription factor of Nicotiana benthamiana; high values mean tight binding; most listed sequences are background and not binding sites; double strand, one strand shown
row,Sequence,binding signal
1,AATTAGAG,0.025 E-score
2,ATGGGTAC,-0.191 E-score
3,ACCCAGGG,-0.238 E-score
4,ATGCACAT,0.0177 E-score
5,CACGGCTG,-0.229 E-score
6,AAGGAAGT,-0.139 E-score
7,AAGTGGTC,-0.236 E-score
8,AGAGGCGA,-0.00537 E-score
9,ACGGTGGC,-0.159 E-score
10,ATTTTGTC,0.341 E-score
11,ACATTCAG,0.0565 E-score
12,AACAGCTA,-0.0363 E-score
13,ACATGGCA,-0.145 E-score
14,CAGCCTTA,-0.143 E-score
15,CACTGTAG,-0.0893 E-score
16,AAGTGGCC,-0.272 E-score
17,CAATACTA,0.0375 E-score
18,AAGAACCA,-0.179 E-score
19,ATCCCGGA,0.308 E-score
20,ATCGTTGG,-0.0748 E-score
21,CAGAGTTA,-0.0326 E-score
22,AGGGACCT,-0.3 E-score

row,Sequence,binding signal
1,AGGTGGAG,-0.24 E-score
2,AGCTAGAA,0.033 E-score
3,AGTCCCTG,-0.105 E-score
4,ACAACATA,0.12 E-score
5,ATCCGGGG,0.279 E-score
6,AAGTGAAT,0.124 E-score
7,ATTGGGGG,-0.171 E-score
8,AATACTCA,0.147 E-score
9,CAAGGCCA,-0.158 E-score
10,AGACACGG,-0.048 E-score
11,ATAAGCGG,-0.0581 E-score
12,ATGCATCG,-0.0548 E-score
13,ACTCCTAG,-0.237 E-score
14,ATAGTGCA,0.0316 E-score
15,AGCCAGAG,-0.243 E-score
16,AGTAATAA,0.0565 E-score
17,CACTTTAC,0.0634 E-score
18,ATATGTTG,0.173 E-score
19,ATTATGTC,0.111 E-score
20,ATATTAGC,0.208 E-score
21,ATCCTTGC,0.135 E-score
22,ATTCTTTA,0.258 E-score

row,Sequence,binding signal
1,AGTCCCGA,-0.0862 E-score
2,AACTTCAC,-0.184 E-score
3,AGATTGTG,0.421 E-score
4,AGCTCGCC,-0.245 E-score
5,ACATACTA,-0.0393 E-score
6,AATGGGGT,0.0771 E-score
7,AAAACGGG,-0.102 E-score
8,ATGTACAG,0.0591 E-score
9,ACTGTAAA,0.201 E-score
10,AGTTCTGA,0.0364 E-score
11,ACAACGTG,-0.206 E-score
12,AAAAGCTA,0.00274 E-score
13,ATTTAATA,0.0961 E-score
14,ATCTGGGA,0.334 E-score
15,CAACTTGG,-0.146 E-score
16,ATGTGGAA,0.0185 E-score
17,CAAGACCA,-0.0988 E-score
18,AGGCTACC,-0.192 E-score
19,ACAGTAAA,0.0615 E-score
20,ACTAGTAA,0.104 E-score
21,ATCTTCAC,0.352 E-score
22,AGCAGCAG,-0.111 E-score

row,Sequence,binding signal
1,ATGCTTCG,-0.0511 E-score
2,ATGACTAC,0.023 E-score
3,AACAGTTA,0.0655 E-score
4,CAAGTATA,0.15 E-score
5,CAATTCCC,0.217 E-score
6,ATCATCCG,0.0645 E-score
7,AGATTTTA,0.414 E-score
8,AACGAGGT,-0.115 E-score
9,AGCACCCT,-0.226 E-score
10,ACTTCAAA,0.0538 E-score
11,CACTTTCA,0.00838 E-score
12,ATGCCCGC,-0.0264 E-score
13,CAACTCAC,-0.0977 E-score
14,AGCAGCCT,-0.298 E-score
15,AGATTAAG,0.153 E-score
16,ATAGCAGA,0.0836 E-score
17,ACCCATTC,-0.172 E-score
18,ACCAGGAG,-0.193 E-score
19,AGCCGGGC,-0.379 E-score
20,AAGATGGT,-0.138 E-score
